ChEMBL document CHEMBL4888484, “Replenishing the malaria drug discovery pipeline: Screening and hit evaluation of the MMV Hit Generation Library 1 (HGL1) against asexual blood stage Plasmodium falciparum ,using a nano luciferase reporter read-out” (2022)
In all, about 150,000 compounds went through this assay and about 540 (0.36%) showed an effect of 50% or more. The list shows a part of the results.

test system: Plasmodium falciparum; assay: Primary screen in NF54 nanoGlo assay, in single point, at 2uM, 72h; a lower Z score goes with more inhibition; assay type: functional, Erythrocyte; settings: timepoint 72 hour

| Structure (SMILES) | % Inhibition | Z score |
| --- | --- | --- |
| CCCc1n[nH]cc1C(=O)N1CCC2(CCCO2)CC1 | -6% | 0.54 |
| CCc1nnc(N2CCCN(C(=O)[C@@H]3CCCO3)CC2)o1 | 0% | 0.03 |
| O=C(NCC1(O)CCC1)Nc1cccc2ccsc12 | 23% | -2.66 |
| CC(OC(=O)C(C)N1C(=O)C2CCCCC2C1=O)C(=O)Nc1ccc(N2CCCCC2)cc1 (configuration not stated) | -11% | 1.46 |
| O=C(COc1ccc(Cl)cc1)N1CCN(c2ncc(F)cn2)C(=O)C1 | -8% | 1.3 |
| CN1CCC(N2CCN(Cc3ccc(Cl)o3)CC2)CC1 | -2% | 0.38 |
| Cn1nccc1C(=O)NCCCc1nc2c(s1)CCCC2 | 9% | -1.11 |
| CCN1C(=O)c2ccccc2Oc2ccc(C(=O)Nc3ccc(C(F)(F)F)cc3)cc21 | 4% | -0.79 |
| CC(C)(C)CN(CC(=O)O)C(=O)Cc1ccccc1F | -9% | 1.82 |
| Oc1ccc(Cl)cc1-c1nc2ccc(-c3ccc(C(F)(F)F)cc3)cc2o1 | -12% | 1.72 |
| CCCCS(=O)(=O)N1CCC2(CCC(N3CCc4ccccc4C3)CC2)CC1 | 23% | -2.99 |
| COC1CC(N(C)S(=O)(=O)c2ccc3[nH]c(=O)cnc3c2)C12CCC2 (configuration not stated) | -5% | 1.02 |
| CCN(Cc1ccc(C)o1)C(=O)N[C@@H](C)CN1CCCC1 | 1% | -0.09 |
| CC[C@H](OC)C(=O)N1CCOc2ccc(Br)cc2C1 | -14% | 2.19 |
| Cc1ccc(-c2c[n+](-c3ccc(OC(F)F)cc3)c3n2CCCCC3)cc1 | 66% | -12.11 |
| CCc1nc(N(CCC(=O)N2CCOCC2)CCc2ccccc2)c2cc(Cl)cc(Cl)c2n1 | -3% | 0.28 |
| FC(F)COc1ccccc1NCC[C@H]1CCCO1 | 7% | -0.95 |
| CCN(CC)CCn1c(-c2ccccc2)cn2c3ccccc3nc12 | -8% | 0.7 |
| CC1(C)NC(=O)N(CC(=O)Nc2cccc(N3CCCC3=O)c2)C1=O | -16% | 1.44 |
| CCc1onc(C)c1CN1CCC(c2nc(C)c(C)[nH]2)CC1 | -3% | 0.39 |
| Cc1nc(N2CCC(C(=O)NCC3CC3)CC2)nc2cc(S(C)(=O)=O)ccc12 | 19% | -2.46 |
| O=C(NCCN1CCCC1)c1ccnc(N2CCN[C@H](c3ccccc3)C2)c1 | -12% | 1.25 |

| Structure (SMILES) | % Inhibition | Z score |
| --- | --- | --- |
| CCOc1ccccc1C(=O)NCC1CCN(Cc2ccco2)CC1 | -19% | 2.98 |
| O=C1N[C@@H](CNC(=O)c2ccccc2F)CO1 | -10% | 1.19 |
| CCN1CCC[C@H](Nc2ncnc3c2cnn3C)C1 | -11% | 2.23 |
| COc1cc(-c2ccnc3nc(C4CCCCC4)nn23)cc(OC)c1OC | -8% | 1.55 |
| CCn1cc(-c2ccc(F)cc2)cc1C(=O)N[C@@H](C)c1cccnc1 | -1% | 0.09 |
| Cc1cc(=O)c(OCC(=O)N2CCC(NC(=O)OC(C)(C)C)CC2)cn1C | -15% | 1.65 |
| COc1ccccc1N[C@H](c1ccccn1)c1c(C)[nH]c2ccc(NC(=O)c3ccc(C)cc3)cc12 | -2% | 0.37 |
| COC(=O)[C@H](N)c1ccc(C(C)(C)C)cc1 | -13% | 1.3 |
| O=C(NCc1cccs1)[C@@H]1Cc2[nH]cnc2C2(CCCC2)N1 | -9% | 1.4 |
| CCn1c(C)c(-c2nc(C3CC3)no2)c(S(=O)(=O)N2CCC(C)CC2)c1C | -8% | 1.58 |
| O=C(c1ccsc1)N1CCN([C@H]2CCOC2)CC1 | -9% | 1.78 |
| O=C(Nc1ccc(S(=O)(=O)Nc2cnc3ccccc3n2)cc1)c1ccc(Cl)cc1Cl | -8% | 1.1 |
| C[C@@H](CNc1ncccc1Cl)Cn1ccnc1 | -13% | 1.43 |
| NC(=O)[C@]12CCC[C@H]1CN(C(=O)NC(C1CCCC1)C(F)(F)F)C2 (some centres not stated) | -4% | 0.62 |
| CC(C)C[C@H](C)n1nccc1NC(=O)CN1CCC(=O)NC1=O | -6% | 1.19 |
| CN(C)C[C@@H]1CN(c2nccc(C3CCCC3)n2)C[C@@H]1CO | -11% | 1.87 |
| N#Cc1cccc(S(=O)(=O)N2CCCCCCC2)c1 | 4% | -0.83 |
| CO[C@@H]1CS(=O)(=O)[C@H]2CN(C(=O)NCc3cnc(C(F)(F)F)nc3)C[C@@H]12 | 2% | -0.37 |
| C[C@H]1Cc2cnccc2N1S(=O)(=O)c1ccc2c(c1)OCC(=O)N2 | 0% | 0.02 |
| CCc1ccc2nc(C)c(CN(Cc3ccccc3)Cc3ccccc3)c(O)c2c1 | -8% | 1.44 |
| COC[C@@H]1CCCN1CCN1CCN(c2ccccc2)CC1 | -1% | 0.25 |
| C#C[C@H](C)NS(=O)(=O)c1cccc(C)c1Br | 0% | -0.01 |

| Structure (SMILES) | % Inhibition | Z score |
| --- | --- | --- |
| Cc1ccc(-c2nsc(NC(=O)COc3ccccc3)n2)s1 | 2% | -0.31 |
| COc1ccccc1-n1nc(CN(C(=O)CC(C)C)C2CC2)c2c1CCN(Cc1ccccc1F)C2 | -8% | 0.75 |
| O=C(c1ccccc1)N(Cc1ccc(-c2cccc(Cl)c2)o1)[C@H]1CCS(=O)(=O)C1 | -11% | 2.08 |
| CC(=O)Nc1noc2nc(C)cc(C)c12 | 28% | -3.12 |
| NS(=O)(=O)c1ccc(F)cc1Br | -5% | 0.62 |
| CCCN1CCC[C@H]1CNC(=O)c1nc(C)[nH]c1C | -9% | 1.49 |
| Cc1c(Cc2c(Cl)cccc2Cl)c(=O)ccn1-c1ccc(OCc2ccccc2)cc1 | -15% | 2.16 |
| Cc1cc(=O)[nH]c(CCNc2cc(OC(C)C)nc(N)n2)n1 | 2% | -0.42 |
| CO[C@H]1CCC[C@@H]1NC(=O)c1cc2ccccc2[nH]1 | 6% | -0.78 |
| Cc1cc2nc(C(=O)NCCc3c[nH]cn3)cc(C)n2n1 | 7% | -0.94 |
| C[C@H](NC(=O)c1ccccc1)C(=O)NCC1(N2CCOCC2)CCCCC1 | -4% | 0.39 |
| NC(=O)c1ccc[n+](Cc2ccc(-c3ccccc3)cc2)c1 | -5% | 1 |
| Cc1nn(C)cc1Cn1ccnc1-c1ccnc2ccccc12 | -2% | 0.23 |
| O=C(Cc1ccc(-n2cnnc2)cc1)N1CCC2(CC1)OCCc1ccsc12 | -4% | 0.87 |
| O=C(NC(c1ccccc1)c1ccccc1)c1cc2n(n1)CCN(Cc1c(F)cccc1Cl)C2=O | -10% | 1.08 |
| O=C(C[C@H]1CNCCO1)Nc1ccccc1C(=O)NCc1ccccn1 | -17% | 2.46 |
| CN(C)CCO[C@H]1C[C@@H](O)C12CCN(Cc1nc3c(s1)CCCC3)CC2 | -10% | 0.96 |
| CCc1cnccc1C(=O)O[C@@H](C)Cc1cccnc1 | -13% | 1.45 |
| NC(=O)N1CCC[C@H](Nc2ccnc(Cc3ccccc3)n2)C1 | -10% | 1.64 |
| CC[C@H](NS(=O)(=O)c1cn[nH]c1)C1CC(O)C1 (some centres not stated) | 0% | 0.05 |
| O=C(NCc1ccsc1)C1(C(=O)NCc2ccsc2)CCC1 | 0% | 0.02 |
| Cc1cc(C(=O)Nc2c(C)cnn2C2CCCC2)no1 | -6% | 0.6 |

| Structure (SMILES) | % Inhibition | Z score |
| --- | --- | --- |
| COc1cnc(NC(=O)N2CC[C@@]3(CCCN(C)C3)C2)s1 | -7% | 1.47 |
| CC1(C)C(=O)NCCN1C(=O)CCC1CCNCC1 | -5% | 0.67 |
| Cc1ccc2c(c1)N(S(C)(=O)=O)C[C@@H](C(=O)Nc1cccc(N(C)S(C)(=O)=O)c1)O2 | -18% | 2.33 |
| C#C[C@H](CNC(=O)OCC)N1CCOCC1 | -11% | 1.8 |
| CC(=O)N(Cc1nnsc1Cl)S(=O)(=O)c1ccc(Br)cc1 | -2% | 0.29 |
| CCN1CCC[C@](C)(c2nc(CCN3CCCC3=O)no2)C1 | -11% | 1.46 |
| C[C@]1(Cc2ccc3c(c2)OCO3)CCCN(C(=O)c2cnc(C3CC3)nc2)C1 | -3% | 0.64 |
| CCOC(=O)CCC(=O)NC1CCCC(OC(=O)Nc2ccc(F)cc2)C1 (configuration not stated) | -13% | 2.57 |
| CC1CCC(N(CC2CCCO2)C(=O)NC2CC3CCC2O3)CC1 (configuration not stated) | 29% | -3.78 |
| Cc1ccncc1-c1ccc(C(=O)N2CCCCCCC2)cc1 | -21% | 4.22 |
| CC(C)n1nccc1N1C(=O)[C@H](C)N(Cc2ccccc2)C1=O | -10% | 1.03 |
| CN(C)S(=O)(=O)c1cc(NC2CCCC2)cc(C(=O)NCCCn2ccnc2)c1 | 22% | -2.56 |
| O=C(N1CCOCC1)N1Cc2ccccc2C1 | -13% | 1.65 |
| Cc1oc(-c2cccc(F)c2F)nc1CN1C[C@@H](C)NC[C@@H]1C | -9% | 1.47 |
| O=C(NCCCN1CCOCC1)C1CC2CCC1C2 (configuration not stated) | -1% | 0.08 |
| Cc1ccc(CNC(=O)c2cccnc2)n1C | -5% | 0.55 |
| Cc1cc(C)nc(N(C)CCOc2ccccc2)n1 | -7% | 0.7 |
| Cc1nnc(-c2ccc3ccn(CC(=O)N4CCCc5ccccc54)c3c2)o1 | 7% | -0.83 |
| C[C@H]1CN(C(=O)NCCc2ccccc2F)CC[C@]1(O)C1CC1 | -11% | 1.93 |
| COC(=O)CC1C(=O)NC2CCCCC2N1C(=O)Nc1ccc(Cl)c(Cl)c1 (configuration not stated) | -8% | 1 |
